Laboratory results from PubChem BioAssay AID485344 (National Center for Advancing Translational Sciences (NCATS), 2010).
Among all 340,000 compounds or so, about 6,900 (2%) were called active. Rule as the data show it: active = inhibition above about 30%; inactive = below that, where a call was filed. Only a part is listed here, and it is no random draw. The source gives no active or inactive call for entries shown without one.

Target: D(2) dopamine receptor (Homo sapiens) (UniProt P14416)
Assay: HTS Assay for Allosteric Antagonists of the Human D2 Dopamine Receptor: Primary Screen for Antagonists; also: 0% is about no effect
Settings: HEK293 TREx D2 cells, calcium flux, dopamine EC80; at 10 µM; stronger effect = higher value
In short: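 Measurement of antagonist activity uses fluorescent calcium dye in inducible HEK293 T-REx D2 cells: 10 s baseline, compound addition with 180 s read, EC80 dopamine addition with a further 180 s read.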

Sequence of UniProt P14416 (P14416 whole entry, looked up): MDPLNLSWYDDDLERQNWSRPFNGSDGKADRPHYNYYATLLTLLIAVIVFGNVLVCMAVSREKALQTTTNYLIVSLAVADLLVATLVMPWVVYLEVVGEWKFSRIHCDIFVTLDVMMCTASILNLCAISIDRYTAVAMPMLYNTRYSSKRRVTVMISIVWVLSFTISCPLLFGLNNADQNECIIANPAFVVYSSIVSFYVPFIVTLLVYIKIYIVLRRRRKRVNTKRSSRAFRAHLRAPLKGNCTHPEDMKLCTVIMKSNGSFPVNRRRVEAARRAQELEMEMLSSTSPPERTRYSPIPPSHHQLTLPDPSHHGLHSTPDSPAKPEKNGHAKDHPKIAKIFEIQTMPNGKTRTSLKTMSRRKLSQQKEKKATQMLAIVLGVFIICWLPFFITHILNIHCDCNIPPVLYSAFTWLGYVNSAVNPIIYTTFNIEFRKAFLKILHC

Structure (SMILES) | inhibition
CCCN(CCC)CC(O)Cn1cc(/C=C/C(=O)c2ccc(C)cc2)c2ccccc21 (configuration not stated) | -13.9%
COc1ccc(NC(=O)CN2CCN(Cc3ccc(F)cc3)S2(=O)=O)cc1Cl | 12.9%
Cc1ccc(SCCC(=O)NC(C)C)cc1 | active: 32.2%
COc1ccc(NC(=O)c2cc(S(=O)(=O)N3CCCCCC3)cn2C)c(OC)c1 | -12%
CC(C(=O)NCc1ccc(Cl)cc1)n1ccc2cc(S(=O)(=O)N3CCCCCC3)ccc21 (configuration not stated) | 6.39%
C=Cc1ccc(Cn2c(C(=O)O)c(CNC3CCCC3)c3ccc(C)cc32)cc1 | 11.4%
CN(C)S(=O)(=O)c1ccc2c(c1)N(CC(=O)Nc1ccc(OC(F)(F)F)cc1)C(=O)CS2 | -1.36%
CCOC(=O)c1c(S(=O)(=O)N2CCC(C(=O)NCc3ccc(F)cc3)CC2)c(C)n(C)c1C | -10.1%
Cc1cccc(N(C)C(=O)CCS(=O)(=O)c2ccc3c(c2)oc(=O)n3C)c1 | 4.03%
COc1ccc(OCC(=O)NC2CC(=O)N(c3cccc(OC)c3)C2)cc1 (configuration not stated) | -15.5%
CNCCCN1c2ccccc2CCc2ccccc21 | active: 39.1%
COc1ccccc1CNC(=O)CCn1nc(C)c2c(C)n(-c3ccccc3)nc2c1=O | -2.27%
O=S(=O)(c1ccccc1)c1nnn2c1nc(NCc1ccc(F)cc1)c1sccc12 | -12.6%
Brc1ccc(-c2nc3ccccn3c2Nc2ccc3c(c2)OCCO3)o1 | -20.3%
CCCCN(CC)C(=O)CSc1nc2n[nH]c(C)c2c(=N)n1-c1cccc(OC)c1 | 13.8%
COc1cccc(N2CCN(c3ncnc4c3nc3n4CCCCC3)CC2)c1 | -23.9%
Cc1ccc(-n2c3nc(=O)[nH]c(=O)c-3cc3c(C)nn(-c4ccccc4)c32)cc1Cl | 9.5%
CCOC(=O)N1CCN(Cc2nc3cc(NC(=O)c4ccccc4[N+](=O)[O-])ccc3n2C(C)C)CC1 | -7.27%
Cc1ccc2c(c1)-c1onc(C(=O)N3CCN(c4ccc(Cl)cc4)CC3)c1CO2 | 3.62%
O=C(NC1CCCCC1)c1ccc(Cn2c(SCc3ccc(F)cc3)nc3cccnc32)cc1 | -6.6%
N#CC1=C(c2ccccc2)/C(=C/c2ccccc2)OC1=O | active: 35.4%
Cc1cccc(C)c1NC(=O)NCCc1c[nH]c2ccccc12 | -0.886%
CCCNC(=O)C1CCC(Cn2c(=O)c3sccc3n(Cc3ccccc3F)c2=O)CC1 (configuration not stated) | -13%
CCN(CC)S(=O)(=O)c1nnc(NC(=O)COc2ccccc2F)s1 | 6.46%
Nc1c(C(=O)Nc2ccc(OC(F)(F)F)cc2)nnn1Cc1ccccc1 | 4.28%
CCOc1ccc(CNC(=O)CSc2cc(=O)n(CC)c3ccccc23)cc1 | -15.9%
Fc1ccc(CNc2ncnc3onc(-c4ccc(F)cc4)c23)cc1 | -0.0004%
